# Experimental data from the supplement of paper PMC10441789.
# The list shows a part of the results. Antibody binding of pooled human sera (four to six donors per pool; dilution not stated) to peptides of the Trypanosoma cruzi antigen TSSA on microarrays. Quantile-normalised fluorescence in arbitrary units, mean of duplicate arrays; higher = more binding. No active / inactive call. The uninfected pools are read here as the healthy donors of the same country. The strongest signals lie near the top of the scale (about 60,000).
# Assays:
# Assay in all cases: antibody binding signal (normalised fluorescence) (arbitrary fluorescence units); higher = stronger serum antibody binding to peptide
# [1] = test system: pooled sera of chronic Chagas disease patients, Argentina
# Procedure: (§1)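 Microarray of 15-residue peptides over residues 30-55 of Trypanosoma cruzi TSSAII, each with 1 to 10 substitutions at naturally variable positions, probed with one serum pool per country.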
# [2] = test system: pooled sera of chronic Chagas disease patients, Bolivia
# Procedure: as §1
# [3] = test system: pooled sera of chronic Chagas disease patients, Brazil
# Procedure: as §1
# [4] = test system: pooled sera of chronic Chagas disease patients, Colombia
# Procedure: as §1
# [5] = test system: pooled sera of chronic Chagas disease patients, Mexico
# Procedure: as §1
# [6] = test system: pooled sera of chronic Chagas disease patients, USA
# Procedure: as §1
# [7] = test system: pooled sera of uninfected people, Argentina
# Procedure: as §1
# [8] = test system: pooled sera of uninfected people, Bolivia
# Procedure: as §1
# [9] = test system: pooled sera of uninfected people, Brazil
# Procedure: as §1
# [10] = test system: pooled sera of uninfected people, Colombia
# Procedure: as §1
# [11] = test system: pooled sera of uninfected people, Mexico
# Procedure: as §1
# [12] = test system: pooled sera of uninfected people, USA
# Procedure: as §1
Sequence,antibody binding signal [1],antibody binding signal [2],antibody binding signal [3],antibody binding signal [4],antibody binding signal [5],antibody binding signal [6],antibody binding signal [7],antibody binding signal [8],antibody binding signal [9],antibody binding signal [10],antibody binding signal [11],antibody binding signal [12]
GKDNKTAAGETPSQS,3080,908,2110,7490,5990,3720,286,311,130,233,160,154
SGTDNKTATGETPSQ,667,1540,41000,191,177,7500,99.6,611,1010,150,115,219
ISTPPSGKEKKPAAG,15900,219,3700,452,21500,408,680,331,144,357,102,297
PSGKEKKTAAGETPS,4620,1330,6160,6690,7630,6260,347,416,103,512,164,163
TPPSGTDKKPATGEA,37700,37700,46500,9780,51400,16800,817,444,547,375,4850,482
PPSGKDNKPAAGGTP,1030,411,16700,871,14700,12000,497,1040,400,402,181,255
DNKPATGETPSPSGA,36700,31600,35300,265,213,30100,228,354,417,189,1840,637
SGKDKKAATGGTPSP,767,548,298,827,857,1170,152,85,162,287,69.5,106
TPPSGTENKAATGET,45700,37500,46000,311,2890,17200,1740,303,229,371,241,216
KKPATGETPSPSGAS,9140,3400,19100,176,286,17300,333,445,106,136,457,547
STPPSGKEKKPATGE,30300,3030,14900,314,42900,10400,1030,1470,169,674,134,432
ENKAATGGAPSPPGA,524,1300,3270,604,416,2600,314,140,188,183,128,179
KEKKTATGGAPSQPG,493,201,253,775,315,319,232,90,114,109,125,101
ENKAAAGGAPSPSGA,494,1420,944,5050,374,829,325,142,231,265,196,388
KKPAAGETPSPSGAS,211,217,1210,149,184,817,354,252,123,124,74.5,751
TSSTPPSGKDNKPAT,18000,25700,31000,685,23000,12300,480,1060,198,254,185,277
GTDNKPAAGGTPSQS,2340,274,42800,2030,368,297,229,1070,1390,490,704,158
EKKTAAGETPSQSGA,725,733,1530,557,561,3690,163,1080,213,1090,329,1100
KAATGGTPSPSGASS,796,672,384,454,2240,203,297,114,219,156,101,213
SGKENKPAAGETPSP,2940,4140,19700,3800,4200,14200,8030,4870,170,334,670,418
PPSGKDKKPATGETP,31500,2710,14200,937,28800,16900,376,598,110,323,847,161
PSGTEKKPAAGEAPS,34200,12800,23100,11300,11400,16200,736,601,828,394,805,725
SGKDKKPAAGETPSQ,799,649,2420,1780,977,1500,123,126,112,1540,80.2,94.2
GKENKTATGGAPSQS,2790,810,9450,5210,6140,15500,415,113,113,129,132,148
PSGTEKKAAAGGTPS,10600,966,3310,10000,7060,5910,480,281,1170,322,160,389
